# In PubChem BioAssay AID662 (National Center for Advancing Translational Sciences (NCATS), 2007):
# Where “and” joins values, the source holds several entries; their conditions need not be identical. Identical values can stand only once. The campaign covered roughly 71,000 compounds. About 1,800 (2.5%) were called active. The shares of active, inactive and inconclusive entries below differ from those in the screen. The call rests on the fitted dose curve; in most records, active means well fitted activation curve with a large enough effect in the signal ratio, with a control signal flat (not every such curve was filed as active); inconclusive means small, poorly fitted or top-dose-only effect, or effect the other way, or a change in a side signal; inactive means flat fitted curve, though single readings scatter; the % refers to the signal ratio. Potencies of inconclusive entries are doubtful fits and often do not repeat.
# Experiment: Cell signaling CRE-BLA (Fsk stim); on activity change, negative = inhibition: % of control where 0% means no effect
# Settings: CHO CRE-bla reporter (cAMP response element driving beta-lactamase), forskolin EC10, beta-lactamase ratio
# Outline: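 Titrated compounds plus EC10 NKH 477 on CHO CRE-bla cells, 3 h, 37 °C. CCF4, 2 h RT. Ratio 460/530 nm → AC50.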
# [1] = activity change, negative = inhibition: at 38.2 µM (top of the series) unless noted
# Potency means the concentration at half of the fitted maximal effect; tags describe the fitted curve by direction and shape.
compound,measurement,setting,value
COc1ccc(-n2c(=O)c(C)nc3cnc(Oc4cccc(Cl)c4)nc32)cc1,Potency,[1],"inconclusive: 12.6 µM [rising, partial curve]"
c1ccc(-c2ccc(-c3ccc(C4=NCCN4)cc3)o2)cc1,Potency,[1],active: 0.501 µM
C=CCn1c(SCC(=O)Nc2ccc3c(c2)OCO3)nnc1-c1cc(Br)ccc1O,"activity change, negative = inhibition",[1],inconclusive: -27.3%
Cc1ccc(Nc2nnc(SCc3cc(=O)n4ccsc4n3)s2)c(C)c1,"activity change, negative = inhibition",[1],inconclusive: 26.7%
Cc1cc(C)n2cc(CSc3nnnn3-c3ccccc3C)nc2n1,Potency,[1],"inconclusive: 12.6 µM [rising, partial curve]"
COC(=O)c1ccccc1NC(=O)c1cccs1,Potency,[1],"inconclusive: 10 µM [rising, partial curve]"
CC1(C)Cc2ccccc2-c2nc(NCCO)n(-c3ccccc3)c(=O)c21,Potency,[1],"inconclusive: 0.0631 µM [rising, full curve, poor fit]"
COc1ccc(CNc2ncncc2-c2ccccc2Cl)c(OC)c1,"activity change, negative = inhibition",[1],inactive
CCCCN1CCc2c([nH]c3ccc(C)cc23)C1=O,"activity change, negative = inhibition",[1],inactive
COC(=O)Nc1c(C)n(C)n(-c2ccccc2)c1=O,"activity change, negative = inhibition",[1],inconclusive: 9.29%
c1nc2sc3c(c2c2nnnn12)CCCC3,"activity change, negative = inhibition",[1],inconclusive: -21.8%
CCCCCC(=O)N(O)C1CC(=O)N(c2ccccc2)C1=O (stereo not given),"activity change, negative = inhibition",[1],inconclusive: -17.6%
Cc1cc(Nc2ccc(F)cc2C)n2nc(C)nc2n1,Potency,[1],"inconclusive: 10 µM [rising, partial curve]"
COc1cccc(-c2nccc(-n3ccnc3)n2)c1,Potency,[1],"inconclusive: 10 µM [rising, partial curve]"
Cc1cc(C)nc(NC(=O)NS(=O)(=O)N2CCCCCC2)n1,"activity change, negative = inhibition",[1],inactive
CCCc1nc2oc3c(NCCN(C)C)ncnc3c2c2c1CCCC2,Potency,[1],"inconclusive: 12.6 µM [rising, single point]"
Cc1ccc(C(=O)Nc2ccccc2N2CCN(C(=O)C(C)C)CC2)cc1C,"activity change, negative = inhibition",[1],inconclusive: -24.2%
Cc1cccc2sc(NC(=O)C3CCCO3)nc12 (stereo not given),Potency,[1],"inconclusive: 3.98 µM [rising, partial curve]"
CC(C)[C@H](CO)Nc1nc(Nc2cc(N)cc(Cl)c2)c2ncn(C(C)C)c2n1,Potency,[1],"inconclusive: 5.01 µM [falling, full curve]"
CCc1cc(=O)oc2cc(OCC(=O)O)c(Cl)cc12,"activity change, negative = inhibition",[1],inactive
CC(=O)N(C[C@@H](O)CO)c1c(I)c(C(=O)NC[C@@H](O)CO)c(I)c(C(=O)NC[C@@H](O)CO)c1I,"activity change, negative = inhibition",[1],inactive
NCCC[C@@H](CC(=O)N[C@@H]1CCNC[C@H]1C(=O)N[C@H](CC(=O)N[C@@H](CCC(=O)O)CC(=O)O)Cc1c[nH]c2ccccc12)NC(=O)C[C@H](Cc1ccccc1)NC(=O)[C@@H]1CNCC[C@H]1N,"activity change, negative = inhibition",[1],inactive
CCOC(=O)c1sc2nc(-c3ccco3)c3c(c2c1N)CC(C)(C)OC3,"activity change, negative = inhibition",[1],inactive
COc1cc2c(c(OC)c1OC)-c1ccc(OC)c(=O)cc1[C@@H](NC(C)=O)CC2,Potency,[1],active: 200 nM and active: 631 nM and active: 1.26 µM
CCc1nc(SCC(=O)N2CCC(C)CC2)c2c(=O)n(C)c(=O)n(C)c2n1,Potency,[1],active: 10 µM
CCC(Sc1nc(-c2ccccc2)c(C#N)c(=O)[nH]1)C(=O)Nc1cc(C)on1 (stereo not given),"activity change, negative = inhibition",[1],inconclusive: -1.2% [at 7.6 µM]
NC(=O)N1CC(O)CC1C(=O)Nc1ccc(Cl)c(Cl)c1 (stereo not given),"activity change, negative = inhibition",[1],inactive
C=CCN1C(=O)C2(/C(=C(\O)c3ccc4c(c3)OCCO4)C(=O)C(=O)N2CCCOC)c2ccccc21 (stereo not given),"activity change, negative = inhibition",[1],inactive
COc1ccc(-c2cc(C(F)F)n3ncc(C(=O)NCCCN4CCCC4=O)c3n2)cc1,Potency,[1],"inconclusive: 12.6 µM [rising, partial curve]"
CO/C=C/C#CC1(O)CCN(C)CC1,"activity change, negative = inhibition",[1],inconclusive: 1.35%
COCCn1c(=O)c(-c2ccc(F)cc2)nc2cnc(N(C)C)nc21,Potency,[1],active: 1.58 µM
Cc1ccccc1-n1nc2c(c1NC(=O)c1cc3ccccc3oc1=O)CS(=O)C2 (stereo not given),Potency,[1],active: 2.51 µM
Cc1nc2cccc([N+](=O)[O-])c2n1CCCN(C)C,"activity change, negative = inhibition",[1],inactive: 12.3% [at 7.6 µM]
O=C(NC(Cc1ccccc1)C(=O)N1CCN(c2ccccn2)CC1)c1ccco1 (stereo not given),"activity change, negative = inhibition",[1],inactive
Cc1cc(OCC(=O)C(C)(C)C)c2c(C)c(C)c(=O)oc2c1,Potency,[1],"inconclusive: 1 µM [rising, partial curve, poor fit]"
COc1ccccc1NS(=O)(=O)c1ccc(NC(C)=O)cc1,"activity change, negative = inhibition",[1],inactive
Cc1oc(C(=O)Nc2ccc(O)cc2)cc1COc1ccccc1,"activity change, negative = inhibition",[1],inconclusive: -22%
CN(C)S(=O)(=O)c1cccc(-c2nnc(SCc3ccc4c(c3)OCCO4)o2)c1,Potency,[1],"inconclusive: 10 µM [rising, single point]"
COCCCn1c(=S)[nH]c2ncccc2c1=O,"activity change, negative = inhibition",[1],inconclusive: 16.8%
CCNC(=O)C1CC(=O)N(Cc2ccc3c(c2)OCO3)C(=Nc2ccc(OCC)cc2)S1 (stereo not given),"activity change, negative = inhibition",[1],inactive
CCOc1ccc(-c2nc(CSCC(=O)N3CCN(c4cccc(OC)c4)CC3)c(C)o2)cc1,"activity change, negative = inhibition",[1],inconclusive: -28.2%
COc1cc(OC)c(-c2nnc(-c3ccc(OC)c(OC)c3OC)o2)cc1OC,Potency,[1],active: 3.98 µM
CCCc1nc2oc3c(N4CCNCC4)ncnc3c2c2c1CCCC2,"activity change, negative = inhibition",[1],inactive
COc1cc(OC)c(C(=O)Nc2ncn[nH]2)cc1OC,Potency,[1],"inconclusive: 10 µM [rising, partial curve]"
Cc1cc(C)c(OCC(=O)Nc2cccc(NC(=O)c3ccco3)c2)c(Br)c1,Potency,[1],"inconclusive: 1.26 µM [rising, partial curve]"
COC(=O)c1nnn(-c2ccccc2)c1N,Potency,[1],"inconclusive: 0.00398 µM [falling, full curve, poor fit]"
CCOC(=O)c1c(NC(=O)c2nn(CC)cc2Br)c(C#N)nn1-c1ccccc1,Potency,[1],active: 7.94 µM
NS(=O)(=O)c1cc2c(cc1Cl)N[C@@H]([C@@H]1C[C@@H]3C=C[C@H]1C3)NS2(=O)=O,"activity change, negative = inhibition",[1],inconclusive: 1.14%
same,"activity change, negative = inhibition",at 38.2 µM (top of the series),inactive: -3.56%
O=S(=O)(c1cccc(-c2nnc(-c3cccnc3)o2)c1)N1CCCCC1,Potency,[1],"inconclusive: 10 µM [rising, partial curve]"
